Results published in PubChem BioAssay AID1508642 (National Center for Advancing Translational Sciences (NCATS), 2021).
Among all 43,000 compounds or so, about 200 (0.47%) were called active. Not shown: some 12% with an inconclusive outcome. Calls come from the whole dose curve; as a rule, active = well fitted cell-killing curve with a large enough effect; inconclusive = small, poorly fitted or top-dose-only effect, or effect the other way; inactive = flat fitted curve, though single readings scatter. This is one part of the list.

Test: Cell viability qHTS assay in S16 Pmp22-F2sN cells; note: nearly all actives have a fitted effect of over 65% in size
Conditions: S16 Pmp22-F2sN Schwann cells (luciferase reporters placed in the Pmp22 gene) viability, CellTiter-Glo, 24 h; series mostly up to 57.5 µM; activity change, negative = cytotoxicity: at the top concentration
Procedure, shortened: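 Seed 500-1,000 S16 Pmp22-F2sN cells per well in phenol-red-free DMEM with 10% heat-inactivated FBS; pin-add 23 nL compound; incubate 24 h at 37C; add CellTiter-Glo, wait 15 min protected from light; read luminescence.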
% is set by controls: 0 for no effect and ±100 for the full control effect.

SMILES | activity change, negative = cytotoxicity
CCn1c(C(=O)NCCc2ccc(S(N)(=O)=O)cc2)cc2sc(Cl)cc21 | inactive: 2.71%
O=C(c1ccc2c(Cl)c3c(nc2c1)CCCC3)N1CCN(c2ccc(Cl)cc2)CC1 | inactive: 17%
COc1ccc(N2CCN(CCCNC(=O)C3COc4ccccc4C3)CC2)cc1 (stereo unspecified) | inactive: -22.2%
CCOc1ccc(-n2c(=O)c3c4c(sc3n(CC(=O)NC(C)CC)c2=O)CCCCC4)cc1 (stereo unspecified) | inactive: 25.2%
Cc1ccc(CNC(=O)CSc2nc3c(sc4ccccc43)c(=O)n2CCCC(=O)NCCO)cc1 | inactive: 1.23%
O=C(Nc1ccc(F)cc1)Nc1csc2c1CCCC2 | inactive: 0.633%
Cc1cc(=O)n2nc(N(C)CC(=O)NCc3ccccc3C)sc2n1 | inactive: 0.642%
CCCC(=O)Nc1cccc(OCc2cc(=O)n3cccc(C)c3n2)c1 | inactive: 20.5%
O=C(NCCc1ccccc1)c1cc(Nc2ccccc2)nc2ccccc12 | inactive: 18.1%
COc1ccc(CCCc2nnc(SCC(=O)Nc3cccc(F)c3C)o2)cc1 | inactive: 3.68%
CCOCCc1nn2c(=O)cc(COC(=O)c3ccccc3OC)nc2s1 | inactive: 1.27%
CCOC(=O)C1CCCN(C(=O)c2ccc3c(c2)sc2nc(-c4cccc(OC)c4)cn23)C1 (stereo unspecified) | inactive: -22.3%
COCCCn1c(SCc2cccc(Cl)c2)nc2c(sc3ccccc32)c1=O | inactive: 4.21%
COc1ccc(N(CC(=O)Nc2cccc(Cl)c2)S(=O)(=O)c2c(C)[nH]c(=O)[nH]c2=O)cc1 | inactive: -0.0549%
CCOc1ccc(Nc2nc(-c3cccc(Cl)c3)c3c(n2)-c2ccccc2OC3)cc1 | inactive: 1.05%
CCOCCc1nnc(NC(=O)C(=O)c2cc(C)n(-c3ccc(C)cc3C)c2C)s1 | inactive: -14.4%
COc1cc(NC(=O)CC2C(=O)N(c3ccccc3)C(=O)N2Cc2ccc(F)cc2)cc(OC)c1 (stereo unspecified) | inactive: 1.39%
CCc1ccccc1NC(=O)N1CCOc2ccccc21 | inactive: -4.54%
O=C(Cn1ncc2c([nH]c3ccccc32)c1=O)NCCCN1CCN(c2ccc(F)cc2)CC1 | inactive: -7.54%
COc1ccc(OC)c(NC(=O)CSc2nc(=O)n(CCN(C)C)c3c2CCC3)c1 | inactive: 8.88%
CC1CCc2c(sc(NC(=O)Cc3ccccc3)c2C(=O)Nc2ccc(Cl)cc2)C1 (stereo unspecified) | inactive: -14.4%
CCc1ccc(-n2c(=O)c3c4c(sc3n(Cc3ccccc3C#N)c2=O)CCCC4)cc1 | inactive: -8.14%
CCCn1c2ccccc2c2cnn(CC(=O)Nc3cc(C)c(Cl)cc3OC)c(=O)c21 | inactive: 3.21%
Cc1cn2c(=O)cc(COC(=O)c3ccc(NC(=O)COc4ccccc4C)cc3)nc2s1 | inactive: 6.15%

SMILES | activity change, negative = cytotoxicity
CCOC(=O)c1cc(-c2ccccc2)n(-c2cccc(C(=O)Nc3cccc(SC)c3)c2)c1C | inactive: 4.17%
Cc1ccc(-c2nn3c(-c4ccccc4C)nnc3c3ccccc23)cc1 | inactive: 5.63%
COc1ccc(CCC(=O)NCCc2csc(-c3ccc(F)cc3)n2)cc1 | inactive: 2.37%
CCc1ccc(NC(=O)CSc2ccnc(=O)[nH]2)cc1 | inactive: 3.55%
O=C(NCCc1ccccc1)c1ccc2c(c1)N(Cc1ccc(Cl)cc1)C(=O)CS2 | inactive: -9.21%
Cc1nn(C)c(C)c1S(=O)(=O)N(CC(=O)NCCc1ccccc1)c1ccc(C(C)C)cc1 | inactive: -13.3%
Cc1cc2c(cc1S(=O)(=O)NCc1ccc(F)cc1)n(C)c(=O)c(=O)n2C | inactive: -2.77%
Cc1cccc(N2C(=O)CC(c3ccc(F)cc3)C3=C2COC3=O)c1 (stereo unspecified) | inactive: -2.34%
COc1ccc(NC(=O)c2ccco2)cc1NC(=O)COc1ccc(C)c(C)c1 | inactive: 1.85%
CCCCNC(=O)c1nn(C)c2c1CSc1ccccc1-2 | inactive: 15%
Cc1ccccc1C(=O)Nc1cc(C)c(O)c(-c2nc3ccccc3o2)c1 | inactive: 17%
CCCCCCn1nnc2sc(-c3ccccc3)cc2c1=O | inactive: 0.327%
CC1CCN(CC2CCN(C(=O)NCc3ccccc3)CC2)CC1 | inactive: 2.38%
CCOc1ccc(-c2nc(Cn3c(=O)cc(C)c4c(C)nn(-c5ccccc5)c43)c(C)o2)cc1 | inactive: -1.64%
CCC1CN(C(=O)Nc2ccccc2F)c2cc(C)ccc2O1 (stereo unspecified) | inactive: 2.55%
COc1ccc(CNC(=O)CCNS(=O)(=O)c2ccc3c(c2)oc(=O)n3C)cc1 | inactive: -0.913%
COc1ccc(C2CC(=O)c3cc(-c4nc(-c5cccc([N+](=O)[O-])c5)cs4)c(=O)n(-c4ccccc4)c3C2)cc1 (stereo unspecified) | inactive: 3.15%
CCN1c2ccccc2-c2nc(SCC(=O)Nc3cccc(C)c3C)ncc2S1(=O)=O | inactive: -19.6%
CCn1cc(C(=O)N(C)Cc2ccccc2)c(=O)c2cc(S(=O)(=O)N3CCc4ccccc4C3)ccc21 | inactive: -0.509%
COc1cc(C)ccc1OCCSc1nc2ccc(NC(=O)c3ccco3)cc2s1 | inactive: -15.2%
CCOC(=O)c1cccc(NC(=O)CCSCCc2ccccn2)c1 | inactive: 7.66%
COc1cccc(CNC(=O)c2cc3c(-c4ccccc4F)nn(C)c3s2)c1 | inactive: -18.8%
COc1cc(C2Nc3ccccc3-c3cc(C)nn32)ccc1O (stereo unspecified) | inactive: 0.945%
Cc1ccc(NC(=O)Cn2nc(-c3ccccc3)nc(Cc3ccc(Cl)cc3)c2=O)cc1 | inactive: -0.235%

SMILES | activity change, negative = cytotoxicity
Cc1noc(-c2ccc(-c3noc(-c4ccc(F)cc4)n3)cc2)n1 | inactive: -1.69%
COCCn1c(SCC(=O)Nc2cc(Cl)ccc2OC)nc2c([nH]c3ccccc32)c1=O | inactive: -6.56%
O=S(=O)(c1ccc(Br)s1)N1CCN(c2cccc(C(F)(F)F)c2)CC1 | inactive: 1.58%
CCN(CC)c1ncnc2c1cnn2-c1cc(Cl)ccc1C | inactive: -6.54%
COc1cc(C(CC(=O)Nc2ccc(C)c(F)c2)N2Cc3ccccc3C2=O)cc(OC)c1OC (stereo unspecified) | inactive: 9.41%
CCOc1ccccc1NC(=O)C1CCN(S(=O)(=O)c2c(C)noc2/C=C/c2ccco2)CC1 | inactive: -0.0398%
O=C1OCC2=C1C(c1cccc(Cl)c1)CC(=O)N2c1ccc(C(F)(F)F)cc1 (stereo unspecified) | inactive: 12.6%
Cc1cccc(Cn2cc(S(=O)(=O)c3cccc(Cl)c3)c(=O)c3cc(F)c(N4CCOCC4)cc32)c1 | inactive: 9.87%
CCOC(=O)c1c(C)[nH]c(C)c1S(=O)(=O)N(C)CC(=O)Nc1ccc(OC)cc1 | inactive: -26.5%
COc1ccc(CC(=O)Nc2c(C(=O)N3CCN(c4ccccc4)CC3)oc3ccccc23)cc1OC | inactive: -3.59%
Cn1c(=O)c2nc(SCC(=O)Nc3ccc(OC(F)(F)F)cc3)n(C)c2n(C)c1=O | inactive: -2.04%
COc1cc(OC)cc(-c2cc3nc(C)c(CCC(=O)NCCc4cccc(C)c4)c(C)n3n2)c1 | inactive: -17.6%
COc1cc(NC(=O)Cn2nc(C(F)(F)F)c3c2CCC3)cc(OC)c1OC | inactive: -9.56%
O=C(CCn1c(=O)c2ccccc2n(CC(=O)Nc2cccc(F)c2)c1=O)NCCc1ccccc1 | inactive: 7.5%
COC(=O)Cn1c(C2CC(=O)N(c3c(C)cccc3C)C2)nc2ccccc21 (stereo unspecified) | inactive: 8.09%
Cc1cc(NC(=O)CCc2nc3cccnc3n2-c2ccccc2)ccc1Br | inactive: 7.38%
O=C(CCNS(=O)(=O)c1ccc2c(c1)CCCC(=O)N2)Nc1cccc(Cl)c1 | inactive: 1.51%
O=C(NCCc1ccccc1)c1ccc(CS(=O)Cc2ccc(Cl)cc2)o1 (stereo unspecified) | inactive: 12.1%
COc1ccc(C(=O)c2c(N)c(-c3nc(-c4ccc5c(c4)OCO5)cs3)c3ccccn23)cc1 | inactive: 13.1%
O=C(Nc1ccc(F)cc1F)C1CCN(c2ncccn2)CC1 | inactive: 5.28%
O=S(=O)(c1ccc(C2CCCCC2)cc1)N1CCN(c2ccc(Cl)c(Cl)c2)CC1 | inactive: 18.5%
CC(=O)Nc1ccc(NC(=O)c2oc3c(c2C)-c2nn(Cc4ccccc4Cl)cc2CC3)cc1 | inactive: 16.9%
CCCCC(=O)Nc1ccc2nc(SCC(=O)N3CCc4ccccc43)sc2c1 | inactive: 14.2%
Cc1cccc(NC(=O)Cn2nc(-c3ccccc3)c3cnc4ccccc4c32)c1 | inactive: -1.09%

SMILES | activity change, negative = cytotoxicity
CCOc1ccc(-n2cc(-c3ccccc3)c3c(NCCc4ccccc4)ncnc32)cc1 | inactive: -20.6%
CCc1cccc(NC(=O)CCn2c(=O)c3cccn3c3cccnc32)c1 | inactive: 14.2%
Cc1ccc(Nc2ccc3cc(S(=O)(=O)N4CCC(C)CC4)ccc3n2)c(Cl)c1 | inactive: 1.28%
CCOC(=O)N1CCc2c(sc3c2c(=O)n(Cc2ccccc2)c(=O)n3CC(=O)Nc2cccc(CC)c2)C1 | inactive: 6.82%
O=C(CCn1c(=O)c2sccc2n(Cc2ccccc2F)c1=O)NCc1ccc2c(c1)OCO2 | inactive: -20.4%
COC(=O)c1ccccc1NC(=O)c1cc(-c2ccccc2O)no1 | inactive: -25.5%
CC(=O)Nc1nonc1-c1nnc(SCC(=O)Nc2ccc(C)cc2)n1-c1ccccc1 | inactive: -10.3%
CCOC(=O)c1sc2cccc(F)c2c1S(=O)(=O)NCc1ccccc1Cl | inactive: 16.1%
O=C(CS(=O)(=O)c1cccc2nsnc12)N1CCN(c2cccc(Cl)c2)CC1 | inactive: -14.9%
COc1ccc(NC(=O)CN2C(=O)CCn3nc(-c4cccn4C)cc32)cc1Cl | inactive: 6.6%
O=S(=O)(c1ccc(-c2cc(C(F)(F)F)on2)s1)N1CCN(c2ccccc2F)CC1 | inactive: 1.81%
Cc1cccc(NC(=O)Cn2nnc(-c3nc(-c4ccncc4)no3)c2N)c1 | inactive: -1.85%
Cc1ccc(NC(=O)CN2C(=O)c3ccccc3Sc3ccc(C(=O)N4CCOCC4)cc32)cc1F | inactive: 0.434%
COc1cccc(N2CCN(C(=O)c3ccc(C)c(NC(=O)c4nsc5ccccc45)c3)CC2)c1 | inactive: -11.8%
Cc1ccc(N(CC(=O)NCCc2ccc(Cl)cc2)S(=O)(=O)c2c(C)noc2C)cc1 | inactive: 5.49%
Cc1ccc(C(c2sc3nc(-c4ccco4)nn3c2O)N2CCCC2)cc1 (stereo unspecified) | inactive: 21.5%
CCc1cccc(NC(=O)COC(=O)c2cn(CC)c3nc(C)ccc3c2=O)c1 | inactive: 19%
COc1ccc(CNC(=O)c2ccc(-c3nc(CSc4ccccc4)c(C)o3)cc2)cc1OC | inactive: -1.36%
COc1ccc(CNC(=O)CSCc2nc(-c3ccccc3C)oc2C)cc1 | inactive: -13.9%
CCCc1cc(=O)[nH]c(SCC(=O)N2CCN(c3ccccc3)CC2)n1 | inactive: 6.45%
CCc1ccc(-n2c(=O)c3c4c(sc3n(CC(=O)c3ccc(F)cc3)c2=O)CCC4)cc1 | inactive: -18.7%
COc1ccc(-c2ccc3c(N)c(C(=O)c4ccc(OC)c(OC)c4)sc3n2)cc1 | inactive: -0.62%
CCC(C)NC(=O)CCCN1C(=O)CCn2nc(-c3cccn3C)cc21 (stereo unspecified) | inactive: 4.73%
CC(C)c1nn2c(=O)cc(COC(=O)c3ccc(NC(=O)COc4ccccc4)cc3)nc2s1 | inactive: 7.47%
